The supplement of paper PMC11417369
± gives the standard deviation of the averaged measurements. This is one part of the list.

test system: PfAP2-G AP2 domain (GST-tagged); assay: gcPBM binding intensity (ln(normalized median fluorescence intensity)); higher = stronger DNA binding
Procedure, shortened: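 An Agilent 4 × 180k array carrying primer-extended double-stranded 36-bp intergenic genomic probes and negative controls received GST-tagged P. falciparum DNA-binding domains expressed in E. coli, about 25 μg on average, for 1 h. The binding buffer contained 1× PBS, 1% milk, 0.2 mg/ml BSA, 0.5% salmon testes DNA and 0.03% Triton X-100. Binding intensity is the top Masliner-normalised natural-log median intensity across replicate spots of either probe orientation, read after Alexa488 anti-GST antibody staining and a 488 nm scan.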

Sequence	gcPBM binding intensity (ln)
ATTTAAGATTTAATCACACACATATAGATTATAGAC [CACACA_site7383]	10.1 ± 0.14
ATGAAGAAGTGTAAATGTACATTTTATGTAGAACAA [XGTACX_site6925]	10.9 ± 0.43
TTTACAGAAAGTTACATACACACTAATATTTACACC [CACACA_site1009]	10.4 ± 0.33
CTTCCTTAGGAATGTACACACATATATAATATGTTG [CACACA_site461]	11.5 ± 0.87
TACAGACAGAAATGCACACACATATTTATATTTATA [CACACA_site7139]	10.2 ± 0.29
TTTTAAATAATTCGTAATTATAATTATGGAAAAAAG [CACACA_negctrl_site152]	9.95 ± 0.18
AAATAAATTAAAATAAATTAAATTAAATTAGCATTA [GTGCAC_negctrl_site531]	9.48 ± 0.2
TGTATGTTATGTATATGTACATATCTTTGTATTTAT [XGTACX_site6920]	11 ± 0.53
ACCTTATTTATTATTGCATGTGACCATCAGATGGTA [TGCATGCA_site288]	11.1 ± 0.66
TTTATTTTTTACCAAGTGCAATATATTATAATAATA	10.3 ± 0.37
TTTTTTTTTTTTTTTGTGCACAATTATTTCAATTTT [GTGCAC_site9884]	10.4 ± 0.61
TATTTATAAGTTTACGCATGCATATAATTATTAATA [TGCATGCA_site311]	10 ± 0.22
TACAAAATATTTTACACACACATATAAATACAGATA [CACACA_site5447]	10.185 ± 0.007
AAGATATGTACTAATACACACACATATATATATATA [CACACA_site8249]	11.2 ± 0.79
AAAAAAAAAAACAATACATGCATAATATTAATAAAA [TGCATGCA_site913]	9.77 ± 0.057
TTCATACATAGAAAATGTACATATATATATATATAT [XGTACX_site1895]	11 ± 0.71
ATATATATGCATAATACACACATCATATAATTAACC [CACACA_site1643]	10.1 ± 0.13
AAAGAAAAAAAATAATGTACTTATGTATTTCAGAAA [XGTACX_site3570]	11.1 ± 0.73
TTTCATAAGAGAAAGACACACAAATATATATTTATT [CACACA_site827]	9.86 ± 0.16
ACATTACCATATAAAACACACAAACATACATACATA [CACACA_site7709]	10.15 ± 0.092
TATAATATTTGGTGCACACAAATTAACAACTGTTTA [CACACA_site3742]	10.8 ± 0.73
ATTTTTTTTTTTAATACACACAATTTTGATGAAGCA [CACACA_site3157]	10.2 ± 0.28
TATCCATGCATTTACACACACACAAAAAAAAATTCT [CACACA_site4100]	10.3 ± 0.38

Sequence	gcPBM binding intensity (ln)
ATAATAAAAAATACAAGTACACATATTATATATATA [XGTACX_site5355]	11.4 ± 0.79
AATGCTATCATTAATGCACACATTTAAAATTAATAT [CACACA_site3548]	10.1 ± 0.24
TTTAAAACCTTACATACACACAAATATATATATATA [CACACA_site677]	9.98 ± 0.45
TTTAAGTTTTTACTTTGTACGTATTATAATAAAATC [XGTACX_site5683]	11.5 ± 0.79
TATATTTACTTATGAAGTACATATATATATATATAT [XGTACX_site5069]	11.4 ± 1
TGTTCTTTTTATACTACACACTGATAAAAAAACAAA [CACACA_site3001]	10.3 ± 0.33
CAAACAATTAAACAAACACACATATACAAGTATTTA [CACACA_site5177]	9.94 ± 0.12
ATACATACATATATATGTACTTATATTTTACACATT [XGTACX_site1688]	11.2 ± 0.75
TACAATCTAAGGAGCACACAAAAATGGATAAATATA [CACACA_site933]	10.4 ± 0.18
TAATAAAAGAAAAAAAGTACAGACATATTGAATTTT [XGTACX_site5044]	11.5 ± 0.93
TTTATTTTCATATGAACACACATATTTATATTATAA [CACACA_site7165]	10.1 ± 0.13
GCTTGAATAATCAATAGTACACACATATAAATATAT [XGTACX_site5964]	11.2 ± 0.82
AACACAAGAACAGAACGTACACACACATATATATAT [XGTACX_site7347]	11.3 ± 0.61
AGGTGTGAGACCACGTTCACAAAATAAAATACATAA [CACACA_negctrl_site326]	10.8 ± 0.53
AATTTCTACTATTGTATGCACTTTCATACATACATA [GTGCAC_site9924]	10.3 ± 0.2
TTTTTTTTTTTTTTTTGTACTCATACATACTATCAT [XGTACX_site3650]	11.1 ± 1.1
ACATCAAGCAGACACACACACACACCCACCCACCCA [CACACA_site8012]	10.6 ± 0.28
CAGGCACTAATAAACACACACATATAAATATAAATA [CACACA_site6320]	9.975 ± 0.078
CAAAACCTTTTATGTACACACATATACATCCCACTT [CACACA_site5716]	11.5 ± 0.91
ATATATATATAATTTTGTACATAATAGCAATTCTAA [XGTACX_site653]	10.6 ± 0.32
GGATGGAGTAGTTAAGCATAATAAATAAAATTATGT [CACACA_negctrl_site578]	10 ± 0.22
GTTTTAAACAAAAATTGTACAATATAATCTTCCTAT [XGTACX_site2851]	10.9 ± 0.4
AACAACTATTAATTTACACACATGTATATATTTTAC [CACACA_site3116]	10.3 ± 0.33

Sequence	gcPBM binding intensity (ln)
AATAGCTAGCTGTGCACACAAACATATTTTCCAAAT [CACACA_site880]	10.4 ± 0.2
GTTAAGAATATGTGTACACATATACATAAATACATA [CACACA_site4254]	11.6 ± 0.95
TAATAATATTATTAATGTACAAATATATATACATAT [XGTACX_site7348]	10.8 ± 0.37
TATATATATATATATTGTACCCTTTTCAAACTTCTC [XGTACX_site2812]	11 ± 0.79
CCACAAGCAGCGGAAACATGCATATGTTGAAATAAT [TGCATGCA_site610]	9.86 ± 0.042
TCATTTCACAAACACACACACACAATATATTTCCTT [CACACA_site3905]	10.075 ± 0.007
AACAAAAAAAAAAAATGTACATATATATAATATATT [XGTACX_site3829]	11 ± 0.59
TATTTTATTATACCAAGTACAAAATTTAAATATGAA [XGTACX_site5478]	10.8 ± 0.64
TATAAGAGAATATATACACACAAAAATAAATACAGT [CACACA_site5000]	10.27 ± 0.064
ATTTTATGTTGAAAGTGTACGTATTAATATGTAGAA [XGTACX_site245]	11.6 ± 0.95
AATATCATCCTTTTTTTTTATAAAATTTAAAATATA [CACACA_negctrl_site844]	9.95 ± 0.14
ACCTCACAAATGAATACACACAAACATATATATTTA [CACACA_site4976]	10.2 ± 0.21
AAATATAAAAATAGCACACATATATACCTATATATA [CACACA_site4204]	9.96 ± 0.11
GCATTGGGAATATATAGTACATATATATATATATAA [XGTACX_site2967]	10.9 ± 0.78
GGATTGATAAGTGGTACACACATATATATTATATAT [CACACA_site2866]	11.5 ± 1
AACCATTCAACTGATGCATGCATTTAACATATAAAT [TGCATGCA_site961]	9.99 ± 0.14
TTTTTCTTTTTCTTTTTTTCTTTTTTTTTTTTTTTC [GTGCAC_negctrl_site727]	9.77 ± 0.15
CAGACGCACGTATTTGCACACATTGCCACGTAATTA [CACACA_site3349]	10.4 ± 0.2
AAACAAATATAATATTGTACATATATATATATATAT [XGTACX_site3105]	10.9 ± 0.63
AAAAAAATTGGGAAAAGTACTTGCAGCTAGCTAAAA [XGTACX_site5178]	11.1 ± 0.63
TTAAAAAAAATTTCAAGTACAAAGTAATATATATAT [XGTACX_site5718]	10.9 ± 0.77
AATTATACATTATATTGTACATATGAATAATTAAAA [XGTACX_site6829]	11 ± 0.68
TATATGTAATATATATGTACGTATAATATAATATTG [XGTACX_site8620]	11.4 ± 0.92

Sequence	gcPBM binding intensity (ln)
CATATATATATATATTGTACACATTTTTTATAAAAA [XGTACX_site2526]	11.4 ± 0.75
TATTTGCAATATAACACACACAAAAAAAGACTCGGA [CACACA_site6891]	10.2 ± 0.15
AGAGAGAAAGCTATAACATGCAAAAATTTTTAGAAC [TGCATGCA_site420]	9.785 ± 0.078
AGTGATAATTTAAAAAGTACAAATGAAATTTAGCTA [XGTACX_site3375]	11.2 ± 0.65
TATATATAAAGCAGTACACACATTTATTTTAGATAC [CACACA_site3387]	11.3 ± 0.69
ATACAAATAAAAAAAAAAATTATAAAATTATAAAAT [CACACA_negctrl_site914]	9.43 ± 0.042
TTTCACATATATATGGTGCATATTTTATGTGTAAAT [GTGCAC_site9937]	10 ± 0.18
GTGTGCAAAAATTGTTGTACATTATATATAAAAAAA [XGTACX_site3246]	11.3 ± 0.9
TTTGTAACTTCTTTCACACATATATATATATATATA [CACACA_site5603]	10.3 ± 0.42
CTATTATCGGTTCCTACACACAAATATAGATGTCTA [CACACA_site7651]	10.3 ± 0.28
TATATAATACAAAAGGGTACATTAACATATTATATA [XGTACX_site3196]	11.1 ± 0.72
TTTTATAATGTTGTAGTGCAAAATACGTATATTTAT [GTGCAC_site9826]	10.5 ± 0.31
AATAAATATATGTACACACACAAATATATACATATC [CACACA_site1903]	11.3 ± 0.63
AAAATATATATTAACACACACACAAAAAAAAAAAAA [CACACA_site1325]	9.88 ± 0.49
AGATATAAGAAAAGCACACACACACCCAAAAAAAAA [CACACA_site2826]	10.4 ± 0.38
GAAAATTATATGTGTTGTACACTTGCAACAACTATT [XGTACX_site3637]	11.3 ± 0.78
CTATATTATTTTTCTTGTACGTAGGAAATATAGCTA [XGTACX_site6176]	11.2 ± 0.76
ATATAAATATTTATTAGTACACATTAGTGTAGTTTT [XGTACX_site4493]	11.5 ± 0.88
ACCGTGGGAAGACACACACACACACCCACATATATA [CACACA_site333]	10.2 ± 0.2
TTTTATTCATTGAGCACACAAAATAAATTATCAAAA [CACACA_site3279]	10.3 ± 0.32
